Consider 88 molecules from ChEMBL document CHEMBL1157539, “Thousands of chemical starting points for antimalarial lead identification” (Nature, 2010).

The structures appear in SMILES notation. Whole data set: some 13,000 compounds, median “IFI” near 4, cut for the highest 2% near 17. This is one part of the list.

This assay can be described thus: GSK_TCMDC: Inhibition Frequency Index (IFI). The number of non-kinase HTS assays where a compound showed > 50 % inhibition, expressed as a percentage of the number of such assays in which the compound was tested (-0 is zero). In kind it is functional.
On to `N#Cc1ccc2c(c1)CCN(CCC1CCC(NC(=O)c3cc4ccccc4[nH]3)CC1)CC2` (stereo not drawn), for which the IFI is 4.26%.
In the case of `Cc1ccc(-c2nc(N3CCN(C(=O)c4ccco4)CC3)c3ccccc3n2)cc1` it was 2.5%; in that of `C=C[C@H]1CN(CCCCCCC)CC[C@H]1CC(=O)Nc1cnnc2ccc(OC)cc12`, 0.75%; in that of `CCCCCCn1c(Sc2ccc(C#N)c([N+](=O)[O-])c2)nnc1-c1ccc(N(C)C)cc1`, 8.39%.
As to `N=C(N)Nc1ccc(CCc2ccc(NC(=N)N)cc2)cc1`, the IFI came out at 2.26%.
To `CCOc1ccc(Nc2nc(N)c3ccccc3n2)cc1` belongs 4.03%.
`Cn1cnc(CCNC(=O)c2cccc(-c3csc(-c4nc5ccccc5[nH]4)c3)c2)c1`: the IFI was found to be 4.72%.
Turning to `CN1CCN(c2ccnc3ccc(NC(=O)Cc4ccc(-c5ccncc5)c5ccccc45)cc23)CC1`, the IFI came out at 5.19%.
Regarding `O=C(Nc1cccc(F)c1)c1ccc(C(=O)NC2CCN(CC3CCCCC3)C2)cc1` (stereo not drawn), the IFI was 3.51%.
To `CS(=O)(=O)N(c1ccccc1)c1cc(C(=O)N[C@@H](Cc2ccccc2)[C@H](O)CNC2CC2)cc(N2CCCC2=O)c1` belongs 2.21%; to `Cc1cc(C)c(C)c(OCCCON2C(=N)N=C(N)NC2(C)C)c1C`, 4.23%.
Molecule `CCn1ncc2c(N3CCCC3=O)cc(C(=O)N[C@@H](Cc3ccccc3)[C@H](O)CNC(C)(C)c3cccc(C(F)(F)F)c3)cc21` returned an IFI of 1.46%.
To `COc1ccc2c(NCCc3ccccc3)cc(-c3ccccc3)nc2c1` belongs 2.17%; to `O=c1cc(NCCNCc2cccc(-c3ccccc3)c2)[nH]c2ccccc12`, 2.96%; to `CCOC(=O)C1=C(C)NC2=C(C(=O)CCC2)C1c1cn(Cc2ccc(Cl)cc2Cl)nc1-c1ccccc1` (stereo not drawn), 1.75%.
To `O=C(NCCc1ccccc1F)c1ccc(N2CCN(c3ccncc3)CC2)cn1` belongs 6.9%.
In the case of `CCCN1CCC(NCc2cn(C)nc2-c2ccc(Oc3ccccc3)cc2)CC1` it was 13.6%; in that of `O=C(Cn1c(CCc2cccc(F)c2F)cc(=O)c2ccccc21)N(Cc1ccc(-c2ccc(C(F)(F)F)cc2)cc1)C1CCN(CCO)CC1`, 8.09%; in that of `COc1ccccc1/C=C/C(=O)N(C)C1CCN(CCCCCNC(=O)/C=C/c2ccc(Cl)c(Cl)c2)C1` (stereo not drawn), 5.84%.
Turning to `Nc1nc(-c2ccccn2)nc(-n2nc(-c3cccc(C(F)(F)F)c3)cc2N)n1`, the IFI was found to be 7.46%.
`Oc1ccc2ncnc(Nc3ccc(OCc4cccc(F)c4)c(Cl)c3)c2c1` had an IFI of 2.94%.
`Cc1cc(CN2C(=O)C(c3ccccc3)(c3ccccc3)N=C2N)c(C(F)(F)F)o1` displayed an IFI of 3.51%.
To `CCCC1N=C(N)N=C(N)N1c1ccc(C)c(C)c1` (stereo not drawn) belongs 0%; to `COc1cc(Cc2cnc(N)nc2N)ccc1OCc1ccc(NC(C)=O)cc1`, 0.93%.
In the case of `Cc1cccc2nc(-c3ccc(-c4ccc(CN5CCN(c6ccc(C#N)cn6)CC5)cc4)s3)[nH]c12` it was 1.98%; in that of `CCC(C(=O)Nc1cc(=O)[nH]c2nc(-c3ccco3)nn12)c1ccccc1` (stereo not drawn), 4.35%.
In the case of `Cc1ccc(-c2noc(=O)n2CC(=O)Nc2ccccc2-c2ccccc2)cc1` it was 0.75%.
Take `COc1ccc2ncc(F)c(CCN3CC(O)C(CNCc4ccc5c(c4)OCCO5)C3)c2n1` (stereo not drawn): the IFI was 2.94%.
Molecule `CC1Cc2ccccc2N1S(=O)(=O)c1cccc(C(=O)Nc2nc(-c3ccccn3)cs2)c1` (stereo not drawn) showed an IFI of 10.6%.
To `N#Cc1cccc(C(=O)Nc2ccc(-c3cccc(CN4CCC(O)CC4)c3)cc2)c1` belongs 0%; to `COc1ccccc1-c1csc(C(=O)NC2CCCCN(Cc3ccc(C(C)(C)C)cc3)C2)c1` (stereo not drawn), 1.96%; to `C=CCOc1ccc(-c2c(C)[nH]c(C)c(Br)c2=O)cc1`, 0.93%.
`O=C(/C=C/c1ccc(Cl)c(Cl)c1)NCCCCCCN1CCN(C(=O)Nc2cc(Cl)nc(Cl)c2)CC1` had an IFI of 3.17%.
In the case of `N#Cc1ccc2c(c1)CCN(CCCn1c(-c3ccc4ccccc4c3)nc3ccncc31)CC2` it was 5.67%; in that of `CC(C)N1CCN(C(=O)c2ccc(CN(C)CCCN3CCN(c4cccc(Cl)c4Cl)CC3)s2)CC1`, 16.9%; in that of `Cc1cccc2nc(-c3cccc(-c4cccc(NC(=O)Cc5ccc[n+]([O-])c5)c4)c3)[nH]c12`, 0.9%.
In the case of `Cc1cccc2sc(N(CCCn3ccnc3)C(=O)C=Cc3cccs3)nc12` it was 4.08%; in that of `CN(C)c1ccc(C=CC(=O)NC(=O)c2ccccc2O)cc1`, 8.33%; in that of `COc1ccc(CNCc2ccc(-c3ccc(-c4nc5cc(C(F)(F)F)ccc5[nH]4)cc3)cc2)cc1`, 16.2%.
With `CCOC(=O)c1ccc(N2CCCCC2)c(NC(=O)C(Cl)(Cl)Cl)c1`, the IFI turned out to be 1.47%.
To `COc1cc2nc(N3CCC(CNC(=O)c4ccc(-c5ccc(-c6noc(C)n6)cc5C)cc4)CC3)nc(N)c2cc1OC` belongs 7.89%.
In the case of `C[C@H](Nc1nc(C(Oc2ccccc2)c2ccccc2)nc2[nH]ncc12)c1ccccc1` (stereo partly drawn) it was 5.56%; in that of `N#Cc1ccc(N2C[C@@H](OCc3ccccc3)C[C@H]2C(=O)NCCC(c2ccccc2)c2ccccc2)c2ccccc12`, 0.72%.
In the case of `Cc1cc(=NN=Cc2ccc(F)cc2)c2ccc(C(F)(F)F)cc2[nH]1` it was 1.49%; in that of `O=C(/C=C/c1ccc(Cl)c(Cl)c1)N1CCC(CN2CCC(Cc3c[nH]c4ccccc34)CC2)CC1`, 0.72%.
The molecule `c1cc2c3c(cccc3c1)NC(CCCCCCCCC1=Nc3cccc4cccc(c34)N1)=N2` gave an IFI of 2.33%.
The molecule `C=C(C)C1CC=C(CN2CCC(N3CCc4cc(NC(=O)c5cc(C)on5)ccc43)C2)CC1` (stereo not drawn) came in with an IFI of 0%.
Take `Nc1nonc1-c1nc2c(-c3cccc(Cl)c3)nccc2n1CCCNC(=O)Cc1ccc(Cl)cc1`: the IFI was 0.81%.
In the case of `Cc1cc(N[C@@H](Cc2ccccc2)C(=O)Nc2ccccc2)nc(NCCc2ccccn2)n1` it was 4.55%; in that of `O=C1CCCN1CCCNCc1cccc(-c2ccc(-c3nc4cc(C(F)(F)F)ccc4[nH]3)cc2)c1`, 5.88%; in that of `O=C(Nc1ccc2c(c1)CCN2C1CCN(Cc2csc3ccccc23)C1)c1ccco1` (stereo not drawn), -0%.
`O=[N+]([O-])c1cccc(-c2nc3cc(C4=NC5CCCCC5N4)ccc3[nH]2)c1` (stereo not drawn): the IFI is 1.4%.
In the case of `CCCCNCCOc1ccc(-c2nc(-c3ccccc3)c(-c3ccccc3)[nH]2)cc1` it was 5.51%; in that of `c1ccc(C2CCN(Cc3ccc(-c4c[nH]c5nc(NC6CCCC6)ncc45)cc3)CC2)cc1`, 3.51%.
Take `Cc1ccc(NC(=O)c2ccc3ncccc3c2)cc1OC1CCN(Cc2ccc(F)cc2)C1` (stereo not drawn): the IFI came to 3.28%.
`CC(C)CC(NC(=O)c1ccc(F)cc1)C(=O)N[C@H](/C=N/N1CCNC1=O)CC(C)C` (stereo partly drawn) yielded an IFI of 1.8%.
In turn, `FC(F)(F)c1ccc2[nH]c(-c3ccc(-c4ccc(CNCCN5CCNCC5)cc4)cc3)nc2c1` came in with an IFI of 14.7%.
On to `Oc1ccc2nc(NCCCc3ccccc3)nc(NCCCc3ccccc3)c2c1`, for which the IFI is 10.9%.
To `CN(C)CCOc1ccc(NC(=O)Nc2ccnc3c(Br)cccc23)cc1Cl` belongs 2.08%; to `COC(=O)c1ccc2nc(-c3cc(-c4cccc(-c5ccccc5)c4)cnc3N)[nH]c2c1`, 2.94%; to `CN1CCN(c2ccnc3ccc(NC(=O)Cc4ccc(OCc5ccccc5)cc4)cc23)CC1`, 2.19%.
In the case of `CN(Cc1ccccc1)C(=O)c1nn(CCCN2CCC(N3CCCC3)CC2)cc1-c1ccc(Cl)c(Cl)c1`, the IFI was 10.7%.
Turning to `COc1cc(NC(=O)c2ccc3oc4ccccc4c3c2)ccc1OCCN1CCCCC1`, the IFI worked out at 3.7%.
The molecule `Cc1ccccc1C1CCN(C2CCC(NC(=O)c3ccc(-c4ccccc4)s3)CC2)CC1` (stereo not drawn) displayed an IFI of 5.36%.
`O=C(Nc1cccc(-c2cccc(CN3CCCC3)c2)c1)c1ccc(Cl)cc1` had an IFI of 5.66%.
In the case of `CCCC(C)Nc1nc(C)cc(N[C@@H](Cc2ccccc2)C(=O)NCc2ccc(C)cc2)n1` (stereo partly drawn) it was 11.6%; in that of `COc1cccc(C2C(C(=O)Nc3ccccc3)=C(C)N=c3sc(=Cc4ccc(O)cc4)c(=O)n32)c1` (stereo not drawn), 1.99%; in that of `O=C(Nc1ccccc1Br)c1cn(-c2ccccc2)nc1-c1cccc([N+](=O)[O-])c1`, 2.44%.
Turning to `CCc1nc2nc(C)cc(Nc3ccc4c(c3)OCCO4)n2n1`, the IFI came to 0%.
In the case of `Cn1nc(-c2ccc(CN[C@@H]3CCc4ccc(O)cc43)cc2)c2cnc(NCCCN3CCCC3)nc21` it was 7.14%; in that of `O=C(c1cc(C(=O)NC2CCCCC2)c(=O)n(C2CCCCC2)c1)c1cc(F)ccc1O`, 19.4%.
`CC(=O)N[C@H](C(=O)Nc1ccc(-c2ccc(-c3nc4cc(C(F)(F)F)ccc4[nH]3)cc2)cc1)C(C)C` had an IFI of 3.6%.
In the case of `CN(C)CCN(C)Cc1ccc(-c2cccc(NC(=O)c3ccc(Cl)cc3)c2)cc1` it was 3.88%; in that of `O=C(NCCc1ccccc1F)c1cc(Br)cc(N2CCN(c3ccncc3)CC2)c1`, 6.45%.
In the case of `COC(=O)c1ccc2c(c1)nc(Nc1cccc(F)c1)n2CC(O)c1ccccn1` (stereo not drawn) it was 0%.
In the case of `O=C(NCCCCN1CCC(c2ccc3c(c2OCC2COCO2)CCCC3)CC1)c1ccc(-c2ccc(C(F)(F)F)cc2)cc1` (stereo not drawn), the IFI came out at 8.85%.
To `Cc1[nH]c(C)c(-c2ccc(OCc3cc(C(F)(F)F)cc(C(F)(F)F)c3)nc2)c(=O)c1Br` belongs 5.36%; to `COc1ccc(NC(=O)c2csc(-c3cc(NC(=O)c4ccnc(N5CCCC5)c4)ccc3C)c2)cc1N1CCN(C)CC1`, 4.88%.
To `Cc1cccc2nc(-c3cccc(-c4ccc(CNCc5ccccc5)cc4)c3)[nH]c12` belongs 12.5%.
For `O=C(Nc1ccc(OC2CCN(Cc3ccccc3)C2)c(Cl)c1)c1ccc(F)cc1` (stereo not drawn), the IFI was -0%.
To `CC1CCN(C(=O)C(Cc2c[nH]c3ccccc23)NS(=O)(=O)c2ccc(Cl)cc2)CC1` (stereo not drawn) belongs 0.86%; to `CC(C)C1c2ccc(O)cc2CC2C(=O)N(C3CCCCC3)C(=O)N21` (stereo not drawn), 0.79%; to `CCCCCC(C)C(C)c1cc(O)c2c(c1)OC(C)(C)CC2c1cc[n+]([O-])cc1` (stereo not drawn), 6.57%.
In the case of `COc1ccc(Cn2ncc3c4c(N)nc(N)nc4ccc32)cc1OC` it was 5.52%; in that of `CN1CCN(c2cc(-c3cccc(C(F)(F)F)c3)nc(-c3ccncc3)n2)CC1`, 4.17%; in that of `COc1ccc(-c2cc(C(=O)N[C@@H](CC3CCCCC3)C(=O)NCCN3CCCCC3)ccc2O)cc1`, 1.48%.
`Clc1ccc2nnc(-c3c(Cl)cccc3Cl)n2n1` yielded an IFI of 6.67%.
In the case of `C=CCn1c(Sc2ccc(C#N)c([N+](=O)[O-])c2)nnc1-c1cccc(Cl)c1` it was -0%.
